In the antibiotic and cytotoxicity screens of Wong et al. (2023):
Some of the results follow.

What was measured:
[1] = test system: HSkMC (human skeletal muscle cells); test: cytotoxicity call (relative viability < 0.9); settings: 10 µM
[2] = test system: S. aureus RN4220; test: growth inhibition call (relative growth <= 0.2); settings: 50 µM
[3] = test system: HepG2; test: cytotoxicity call (relative viability < 0.9); settings: 10 µM

| SMILES | cytotoxicity call [1] | growth inhibition call [2] | cytotoxicity call [3] |
| --- | --- | --- | --- |
| CN(C)[C@@H]1C(=O)C(C(N)=O)=C(O)[C@@]2(O)C(O)=C3C(=O)c4c(O)cccc4[C@](C)(O)[C@H]3C[C@@H]12 | inactive | active |  |
| O=C(O)c1ccc(=O)[nH]c1 | inactive | inactive |  |
| CCNC1(c2cccs2)CCCCC1=O.Cl (centres undefined) | inactive | inactive |  |
| O=C(c1ccco1)N1[C@@H]2CC[C@H]1CNC2 | inactive | inactive |  |
| CC(C)NC(=O)[C@H]1CCS(=O)(=O)[C@H]2CNC[C@@H]12 | inactive | inactive |  |
| C[C@@H](N)Cc1cccc(O)c1 | inactive | inactive |  |
| CC(=O)[O][PbH2][O]C(C)=O | inactive | inactive |  |
| CC[C@@H](C(=O)[C@@H](C)[C@@H](O)[C@H](C)[C@@H]1O[C@@H]([C@@H](CC)C(=O)O)CC[C@@H]1C)[C@H]1O[C@]2(C=C[C@@H](O)[C@]3(CC[C@@](C)([C@H]4CC[C@](O)(CC)[C@H](C)O4)O3)O2)[C@H](C)C[C@@H]1C | active | active |  |
| CN1CCc2cc3c(cc2C1O)OCO3.Cl (centres undefined) | inactive | inactive |  |
| Cc1cccc(Cc2cnc[nH]2)c1C | inactive | inactive |  |
| Cc1cc([N+](=O)[O-])cnc1N1CCNCC1 | inactive | inactive |  |
| Cc1cc2ccccc2n1CCN | inactive | inactive |  |
| N[C@@]1(C(=O)O)CC[C@H](C(=O)O)C1 | inactive | inactive |  |
| Cc1cccc(Cc2c[nH]cn2)c1C.Cl | inactive | inactive |  |
| CCN(CC)C(=O)C1=NO[C@]2(CCNC2)C1 | inactive | inactive |  |
| CCCCCCCCCC(=O)O[C@@H]1[C@@H](C)[C@]2(O)[C@@H](C=C(CO)C[C@]3(O)C(=O)C(C)=C[C@@H]23)[C@@H]2C(C)(C)[C@@]12OC(=O)CCCCCCCCC | active | inactive | active |
| O=c1cccc2n1C[C@@H]1C[C@H]2CN(CCO)C1 | inactive | inactive | inactive |
| CCCC(=O)c1c(O)[nH]c(=O)[nH]c1=O | inactive | inactive | inactive |
| CC(C)c1c(CN(C)C(C)Cc2ccccc2)n(C)n(-c2ccccc2)c1=O (centres undefined) | inactive | inactive | inactive |
| COP(=S)(OC)Oc1ccc([N+](=O)[O-])cc1 | inactive | inactive | inactive |

| SMILES | cytotoxicity call [1] | growth inhibition call [2] | cytotoxicity call [3] |
| --- | --- | --- | --- |
| O=C1CO[C@]2(CNCCOC2)CN1CC1CC1 | inactive | inactive | inactive |
| CCC1(CC)C(=O)C=CNC1=O | inactive | inactive | inactive |
| Cn1ccnc1N1CCNCC1 | inactive | inactive |  |
| CN1CCc2cc([C@H](CN)N(C)C)ccc21 | inactive | inactive |  |
| O=C1N[C@@H]2C(=C[C@H](O)[C@@H](O)[C@H]2O)c2cc3c(c(O)c21)OCO3 | active | inactive | active |
| NCCc1[nH]nc2c1CCCC2 | inactive | inactive |  |
| Oc1cc(Cl)ccc1Oc1ccc(Cl)cc1Cl | active | inactive | active |
| NC(=O)CN1CC(O)CC1=O (centres undefined) | inactive | inactive | inactive |
| C[C@@H]1CN([C@H](C)CO)C(=O)CCCn2nncc2CO[C@@H]1CN(C)C(=O)Oc1ccc2ccccc2c1 | inactive | inactive |  |
| CC(=O)N[C@@H]1[C@H](O[C@@H]2O[C@H](C[C@@H](O)[C@H]3O[C@@H](n4ccc(=O)[nH]c4=O)[C@H](O)[C@@H]3O)[C@H](O)[C@H](O)[C@H]2NC(=O)/C=C/CCCCCCCCC(C)C)O[C@@H](CO)[C@H](O)[C@H]1O | inactive | active | active |
| C[C@H]1O[C@H](O[C@H]2[C@H](O)[C@@H](O)[C@@H](O)[C@H](O)[C@@H]2O)[C@@H](N)C[C@@H]1NC(=N)C(=O)O | inactive | inactive | inactive |
| Cc1ccc(CC2(N)CC2)cc1 | inactive | inactive | inactive |
| NC(=O)c1ccc(N)nc1 | inactive | inactive | active |
| CC(N)C(O)c1ccc(O)c(O)c1 (centres undefined) | inactive | inactive |  |
| CO/C1=C\C(C)=C\[C@@H](C)[C@@H](O)[C@@H](C)C/C(C)=C/C=C/[C@H](OC)[C@@H]([C@@H](C)[C@@H](O)[C@H](C)C(=O)/C=C/[C@H](C)[C@H](O)C(C)C)OC1=O | inactive | inactive |  |
| COC1C(O)C(C)OC(OC2CCC3(C)C4CCC5(C)C(C6=CC(=O)OC6)CCC5(O)C4CCC3(O)C2)C1O (centres undefined) | inactive | inactive | inactive |
| Cc1c[nH]cn1 | inactive | inactive | inactive |
| C[C@H](CO)N1C[C@H](C)[C@@H](CN(C)C(=O)Oc2ccc3ccccc3c2)OCc2cn(nn2)CCCC1=O | inactive | inactive |  |
| N[C@@H](CO)Cc1ccccc1 | inactive | inactive |  |
